Among all 110,000 compounds or so, about 230 (0.21%) showed an effect of 50% or more. The list shows a part of the results.
These compounds were tested against DPAP1 (Plasmodium falciparum, UniProt Q8IIJ9) (assay: primary screen, percent inhibition; read by cleavage of a fluorogenic dipeptide substrate; higher = more effect of the substance).
Parameters: species or system P. falciparum D10 trophozoite lysates; single well
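Also: 30 min substrate incubation versus DMSO and 10 µM JCP410 controls.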

DPAP1, sequence (Q8IIJ9 whole entry, looked up): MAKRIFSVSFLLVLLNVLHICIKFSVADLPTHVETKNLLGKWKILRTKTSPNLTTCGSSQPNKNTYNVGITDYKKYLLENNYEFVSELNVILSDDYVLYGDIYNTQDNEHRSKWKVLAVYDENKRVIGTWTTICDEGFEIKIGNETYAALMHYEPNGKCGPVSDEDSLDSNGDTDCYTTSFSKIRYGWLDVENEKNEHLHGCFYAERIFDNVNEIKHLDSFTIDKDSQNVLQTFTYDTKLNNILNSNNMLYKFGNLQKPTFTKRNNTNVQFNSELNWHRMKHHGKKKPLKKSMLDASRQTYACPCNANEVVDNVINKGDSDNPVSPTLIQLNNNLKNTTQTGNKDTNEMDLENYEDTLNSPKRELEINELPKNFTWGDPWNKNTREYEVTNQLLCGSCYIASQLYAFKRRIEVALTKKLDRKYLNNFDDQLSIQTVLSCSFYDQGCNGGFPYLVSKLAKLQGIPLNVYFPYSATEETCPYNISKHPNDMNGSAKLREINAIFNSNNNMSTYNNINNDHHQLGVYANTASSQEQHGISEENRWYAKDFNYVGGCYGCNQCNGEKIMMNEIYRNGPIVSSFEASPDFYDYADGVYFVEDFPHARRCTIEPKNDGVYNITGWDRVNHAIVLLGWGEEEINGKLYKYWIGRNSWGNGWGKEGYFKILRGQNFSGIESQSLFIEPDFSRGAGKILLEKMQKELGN

First: COc1cccc2sc(N(CCCN(C)C)C(=O)CN3C(=O)c4ccccc4C3=O)nc12
Second: COc1cc(C2CC(=O)Nc3c2ccc2ccccc32)c(OC)cc1Br (stereo not drawn)
The “% Inhibition @ 10 uM” value of the first is higher: 3.24% for the first, -2.85% for the second.

Compared with `COc1ccc2sc(C(=O)O)c(Br)c2c1`, `Cc1nn(-c2ccccc2)c(-c2ccccc2)c1C(=O)O` is lower in “% Inhibition @ 10 uM” value: 6.18% for the first, -2.77% for the second.

Going from `Cc1ccc(CNCc2c(C(=O)O)n(Cc3ccccc3)c3ccccc23)cc1` to `Cc1c(CNC2CCCC2)c(C(=O)O)c(C)n1Cc1ccccc1`, the “% Inhibition @ 10 uM” value rises from 1.93% to 4.53%.

Going from `Cc1ccc(-n2c(C)cc(/C=C3/C(=N)N4C(=NC3=O)SN=C4S(C)(=O)=O)c2C)c(C)c1` to `Cc1ccc(-c2nc(NC(=O)CCCC(=O)O)sc2C)c(C)c1`, the “% Inhibition @ 10 uM” value falls from 3.48% to -2.77%.

Going from `C=CCOc1ccc2c(C(F)(F)F)cc(=O)oc2c1` to `Cc1nn(Cc2nc(-c3ccc(C(F)(F)F)cc3)no2)c(C)c1Br`, the “% Inhibition @ 10 uM” value rises from -6.87% to 4.57%.

Compared with `O=C(Nc1cc(-c2cccc(Cl)c2)no1)C1CCCN(c2ncnc3c2nc2n3CCCCC2)C1` (stereo not drawn), `Cc1ccc(-c2nnn3c2nc(N2CCCCC2)c2ccccc23)cc1` is lower in “% Inhibition @ 10 uM” value: 1.66% for the first, 0.44% for the second.

Going from `N#CC(C(=O)NC1CCCCC1)=C1CCCCCC1` to `COc1ccc(CCNC(=O)C2CCN(c3nn4c(=O)cc(C)nc4s3)CC2)cc1OC`, the “% Inhibition @ 10 uM” value falls from 0.983% to -5.63%.

Compared with `Cc1cc(-c2ccccc2)n2ncc(C#N)c2n1`, `COc1cccc(-c2nc(SCC(=O)Nc3cccc(C(F)(F)F)c3)nc(O)c2C#N)c1` is higher in “% Inhibition @ 10 uM” value: 3.16% for the first, 4.09% for the second.

Going from `COc1cc(-c2noc(-c3cc4cc(Br)ccc4oc3=O)n2)cc(OC)c1OC` to `COc1cccc2c1OC1(C)CC2/C(=C(O)\C=C\c2ccc(OC)c(OC)c2OC)C(=O)N1` (stereo not drawn), the “% Inhibition @ 10 uM” value falls from 7.99% to -6.57%.

Compared with `O=C(Nc1cccc(C(F)(F)F)c1)[C@@H]1C[C@@H]1c1ccccc1`, `O=C(c1ccccc1F)N1CCN(Cc2c[nH]c3ccccc23)CC1` is lower in “% Inhibition @ 10 uM” value: 3.54% for the first, -9.24% for the second.

Going from `Cc1nc2c(c(C)c1CCC(=O)NCCCOC(C)C)c(=O)n(C)c(=O)n2C` to `CCCCc1nn2cc(-c3ccc(C)c(C)c3)nc2s1`, the “% Inhibition @ 10 uM” value rises from -11% to -2.71%.

Compared with `CC(C)C[C@H](NC(=O)c1ccc(NC(=O)c2ccncc2)cc1)C(=O)NCC#N`, `C=CCn1c(NC(=O)c2ccc(C)cc2)c(C#N)sc1=N` is lower in “% Inhibition @ 10 uM” value: 11.4% for the first, 2.25% for the second.

Going from `Clc1ccccc1OCCCN1CCCC1` to `Cc1ccc(N2C(=O)CC(N3CCOCC3)C2=O)cc1` (stereo not drawn), the “% Inhibition @ 10 uM” value rises from -2.34% to 2.36%.

With `CCOC(=O)c1c(-c2ccc(OC)cc2)csc1/N=C/C1C(=O)CC(C)(C)CC1=O` the “% Inhibition @ 10 uM” value was -1.33%.
